Assay results taken from publication PMC4336329 (PLoS ONE, 2015).
The campaign covered roughly 310,000 compounds. About 14,000 (4.5%) showed an effect of 50% or more. Effects have a minus sign here. Some of the results follow.

Biological target: human ether-à-go-go-related gene (hERG) potassium channel (human, UniProt Q12809)
Assay: primary screen, population patch clamp on CHO cells stably expressing hERG
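Also: peak tail current of the secondary pulse compared with the same well before compound.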

Chain of human ether-à-go-go-related gene (hERG) potassium channel (Q12809 whole entry, looked up): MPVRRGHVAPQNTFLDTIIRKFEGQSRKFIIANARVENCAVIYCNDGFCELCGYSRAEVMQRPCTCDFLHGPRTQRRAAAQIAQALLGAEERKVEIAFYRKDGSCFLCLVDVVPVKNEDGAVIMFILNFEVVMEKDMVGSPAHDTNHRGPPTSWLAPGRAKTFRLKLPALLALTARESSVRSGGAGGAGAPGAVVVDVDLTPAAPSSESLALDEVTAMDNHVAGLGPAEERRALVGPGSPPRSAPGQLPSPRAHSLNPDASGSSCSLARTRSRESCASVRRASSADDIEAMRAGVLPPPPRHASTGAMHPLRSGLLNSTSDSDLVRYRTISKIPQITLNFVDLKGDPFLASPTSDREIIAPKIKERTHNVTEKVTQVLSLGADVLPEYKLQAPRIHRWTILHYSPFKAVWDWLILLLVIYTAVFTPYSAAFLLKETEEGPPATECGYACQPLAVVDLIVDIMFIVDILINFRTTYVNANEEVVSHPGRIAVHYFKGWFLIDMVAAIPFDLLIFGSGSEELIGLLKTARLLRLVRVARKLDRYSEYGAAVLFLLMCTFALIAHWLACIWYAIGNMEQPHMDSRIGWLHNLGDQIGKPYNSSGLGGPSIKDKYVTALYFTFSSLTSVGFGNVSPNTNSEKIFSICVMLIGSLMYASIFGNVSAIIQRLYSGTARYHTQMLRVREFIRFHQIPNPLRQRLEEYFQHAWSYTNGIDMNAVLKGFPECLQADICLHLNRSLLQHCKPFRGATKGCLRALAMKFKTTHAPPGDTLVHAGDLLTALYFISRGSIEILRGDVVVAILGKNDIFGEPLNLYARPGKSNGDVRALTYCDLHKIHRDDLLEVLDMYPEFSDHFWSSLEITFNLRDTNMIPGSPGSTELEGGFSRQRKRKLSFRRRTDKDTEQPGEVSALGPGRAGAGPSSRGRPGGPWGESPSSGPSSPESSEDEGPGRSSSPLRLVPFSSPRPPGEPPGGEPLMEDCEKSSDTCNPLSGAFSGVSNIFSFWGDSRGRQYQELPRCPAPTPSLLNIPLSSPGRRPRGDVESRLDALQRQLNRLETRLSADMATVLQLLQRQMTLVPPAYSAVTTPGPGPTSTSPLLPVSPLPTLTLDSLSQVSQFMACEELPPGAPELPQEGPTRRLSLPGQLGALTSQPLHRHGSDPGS

In order of falling “hERG current change (%, negative = inhibition) at 10uM” value:
1. COc1ccc(/C=N/N=C2/NC(=O)C(CC(=O)O)S2)cc1OCc1ccc(Cl)cc1Cl (centres unmarked)  27.6%
2. CN(C)CCCNC(=O)/C(=N\O)c1ccccc1  25.7%
3. O=c1c2c([nH]c3ccccc13)CCCC2  19.9%
4. COc1ccc2c(c1OC)C(=O)OC2N1C(=O)CC[C@H]1C(=O)NCC1CCCO1 (some centres unmarked)  18.9%
5. COc1ccc(C(=O)Nc2ccccc2C(=O)N2CCOCC2)cc1OC  18.7%
6. Cc1ccn2nc(S(=O)(=O)Nc3c(F)cccc3F)nc2n1  18.4%
7. COc1ccc(Cc2nnc(NC(=O)c3cc(OC)cc(OC)c3)s2)cc1  18.2%
8. Cc1[nH]nc2c1C(c1cc(Br)cs1)C(C#N)=C(N)O2 (centres unmarked)  17.3%
9. CCC(=O)Nc1cccc(-c2nnc(SCC(=O)NCc3ccco3)n2C)c1  14.8%
10. CCc1nnc(NC(=O)c2cc3ccccc3oc2=O)s1  14.7%
11. NC(=O)C1CCN(C2=C(Cl)C(=O)c3ccccc3C2=O)CC1  13.6%
12. CC(=O)C1=C(C)NC(=O)CC1c1ccc(Br)cc1 (centres unmarked)  13.1%
13. C#CCNC(=O)C1=C[C@H](c2ccccc2)C[C@H](OCCCCO)O1  11.2%
14. CCOc1ccccc1CNC(CC)CO.Cl (centres unmarked)  11%
15. CCCc1ccc(C(=O)Cn2nc(C(=O)O)c3ccccc3c2=O)cc1  10.8%
16. CCOc1ccc(NC(=O)CCC(=O)Nc2cc(OC)c(NC(=O)c3ccco3)cc2OC)cc1  10.4%
17. CN1CCN(S(=O)(=O)c2cc(C(F)(F)F)ccc2Cl)CC1.Cl  10.4%
18. CCn1c(/N=C/c2ccccc2O)nc2ccccc21  10.3%
19. Cc1ccc(N/C=C2\CCCCC2=O)nc1  10.2%
20. Cc1cc2c(cc(C(=O)NCc3cccnc3)n2Cc2ccc(Cl)cc2)o1  9.45%
21. Cc1nc2ccccn2c1/C(O)=C1\C(=O)C(=O)N(CCCN(C)C)C1c1ccc(F)cc1 (centres unmarked)  9.11%
22. CCc1cccc(CC)c1NC(=S)Nc1cccc(Cl)c1Cl  8.82%
23. CC(Cc1ccccc1)NC(=O)C(c1ccc(N)cc1)c1ccc(N)cc1 (centres unmarked)  8.62%
24. O=C(Nc1cc(C(F)(F)F)ccc1Cl)c1cc2nc3c(c(C(F)(F)F)n2n1)CCCC3  8.44%
25. CC(C)CC(c1nnnn1Cc1ccccc1)N1CCC(C(N)=O)CC1 (centres unmarked)  7.71%
26. CN1C(=O)CC(NNC(=O)c2ccccc2)C1=O (centres unmarked)  7.6%
27. Cc1cc(C(=O)OC2CCOC2=O)c2ccccc2n1 (centres unmarked)  7.46%
28. Cc1ccccc1SCC(=O)OCC(=O)Nc1sccc1C(N)=O  6.58%
29. CC(C)(C)C1CCC2(CC1)NC(CO)(CO)CO2 (centres unmarked)  6.53%
30. Cc1ccc(S(=O)(=O)N2CCN(c3ccc([N+](=O)[O-])c(NCCN4CCOCC4)c3)CC2)cc1  6.37%
31. COc1ccc(C(C(=O)NCC2CCCO2)N(C(=O)CNC(=O)c2cccs2)c2ccccc2)cc1OC (centres unmarked)  6.13%
32. COc1ccccc1CNC(=O)COC(=O)COc1ccccc1Cc1ccccc1  4.28%
33. COc1ccccc1CNC(=O)C[n+]1ccccc1.[Cl-]  3.72%
34. O=C(CCc1ccccc1)NC1CCSC1=O (centres unmarked)  3.52%
35. CN(Cc1nc2ccccc2n1C)S(=O)(=O)c1ccc(Cl)cc1  3.21%
36. CCC1(Cc2ccccc2)NC(=O)c2ccccc2O1 (centres unmarked)  2.36%
37. COc1ccc(S(=O)(=O)NCc2ccccc2Cl)cc1OC  2.08%
38. COc1ccc(N=Cc2c(O)n(CC3CCCO3)c(=O)[nH]c2=O)cc1 (centres unmarked)  2.05%
39. COC(=O)c1c(C)[nH]c(C(=O)/C=C/c2ccccc2)c1C  1.52%
40. COc1ccc(NC(=O)NCCCCc2ccccc2)cc1  1.06%
41. Cc1ccc(-n2c(=O)c(C#N)cc3c(=O)n4cccc(C)c4nc32)cc1  1.03%
42. COc1ccc(NC(=O)CN2C(=O)COc3ccc(S(=O)(=O)N4CCOCC4)cc32)cc1  -0.308%
43. Cn1c(Cn2cnc(Cl)c2Cl)nc2ccccc21  -0.754%
44. Cc1nc(N2CCOCC2)nc(N2CCC(C)CC2)c1[N+](=O)[O-]  -0.964%
45. O=C(Cc1ccccc1)NCC(=O)OCC(=O)c1cccc([N+](=O)[O-])c1  -1.23%
46. O=C(NCc1ccc(Cl)cc1)c1ccccc1CCc1ccccc1  -1.72%
47. COc1ccc(NC(=O)CN(c2cc(C)cc(C)c2)S(=O)(=O)c2c(C)noc2C)cc1OC  -1.78%
48. Cc1ccc(CN(C(=O)c2ccco2)C(C(=O)NC2CCCC2)c2cccnc2)cc1 (centres unmarked)  -1.98%
49. CC(=O)N1CCN(c2ccc(NCc3ccc(C(C)C)cc3)cc2)CC1  -2.61%
50. O=C(CCNS(=O)(=O)c1ccccc1F)N1CCN(S(=O)(=O)c2cccc(F)c2)CC1  -2.7%
51. Oc1ccc(Br)cc1-c1cc(-c2ccccc2)n[nH]1  -3.11%
52. Fc1ccc(CNc2nc3ccccc3n3cnnc23)cc1  -3.58%
53. CCOc1ccc(OCCn2ccnc2)cc1  -3.62%
54. CCOC(=O)C(NC(C)=O)C(OC(C)=O)c1cccc(N(CCCl)CCCl)c1 (centres unmarked)  -3.64%
55. C(=N/Nc1nc(-c2ccccc2)cc(-c2ccccc2)n1)/c1cccnc1  -3.66%
56. COc1ccc2nc(Nc3ccc4c(c3)OCO4)sc2c1  -3.96%
57. CC1(C)CC(=O)CC(=O)/C1=N\Nc1c(Cl)cc(Cl)cc1Cl  -4.28%
58. COC(=O)C[C@]1(C(=O)OC)CN(C#N)N(c2ccc(Cl)cc2)C12c1ccccc1-c1ccccc12  -5.93%
59. COc1ccc(C(=O)NCC(=O)N=Nc2c(O)n(C)c3ccccc23)cc1OC  -6.6%
60. CC(OC(=O)C1=COCCO1)C(=O)Nc1cc(S(=O)(=O)N2CCCCC2)ccc1Cl (centres unmarked)  -7.13%
61. CN1CCN(C(=O)C2=C[C@@H](C3CCCCC3)C[C@@H](OCCCCO)O2)CC1  -8.64%
62. O=C1OC(c2ccccc2)C2(CCCC2)C(=O)C12CCCC2 (centres unmarked)  -8.65%
63. CCN(CC)S(=O)(=O)c1ccc(NN=C2CCN(C)CC2)c([N+](=O)[O-])c1  -9.03%
64. COC(=O)C1=NNC2(c3ccc(Cl)cc3)C(=O)N(c3ccc(Cl)cc3)C(=O)C12 (centres unmarked)  -9.89%
65. CCOC(=O)C1(Cc2ccc(OC)cc2)CCN(C(=O)CCc2cccnc2)CC1  -10.9%
66. COc1ccc(OC)c(S(=O)(=O)NCc2csc(-c3ccccc3)n2)c1  -11.1%
67. N#Cc1ccccc1OCC(=O)NC(=O)NCc1ccccc1  -11.6%
68. O=C(COc1ccccc1)Nc1ccccc1C(=O)NC1CC1  -12.1%
69. O=C(CCC(=O)c1ccc(F)cc1)NN1C(=O)NC2(CCCCC2)C1=O  -12.4%
70. COc1cc(C(=O)OCC(=O)Nc2cc(C)on2)cc(OC)c1OC  -12.4%
71. COc1ccc(-n2ncc(C(C)NS(=O)(=O)c3ccc(C)s3)c2C)cc1 (centres unmarked)  -13%
72. CCC(C)(C(=O)NC1CCCCC1)N(C(=O)Cc1cccs1)c1ccccc1 (centres unmarked)  -13.5%
73. CN1CCN(S(=O)(=O)c2cccc(C(=O)N(c3ccccn3)C3CCCCC3)c2)CC1  -14.5%
74. Cc1nn2c3ccccc3nc2c2ccccc12  -17.5%
75. O=C(c1ccc(F)cc1F)N1CCCC(c2nc(-c3cccs3)no2)C1 (centres unmarked)  -17.7%
76. COCCCn1c(SCC(=O)N2CCCC(C)C2)nnc1-c1ccco1 (centres unmarked)  -20.2%
77. CCC(CO)Oc1cc(NCc2ccccc2F)c2ncn(C(C)C)c2c1 (centres unmarked)  -21%
78. CCc1ccc(CN(C)C(=O)C2CCC(=O)N(CC3CCCCC3)C2)cc1 (centres unmarked)  -21.1%
79. O=C(NC1CC1)c1ccc2c(c1)S(=O)(=O)c1cc(Cl)ccc1C2=O  -23%
80. O=C(CCCn1c(SCC(=O)Nc2ccccc2C(F)(F)F)nc2ccccc2c1=O)NCC1CCCO1 (centres unmarked)  -23%
81. CC(C)c1ccc(NC(=O)CN2C(=O)NC(Cc3c[nH]c4ccccc34)C2=O)cc1 (centres unmarked)  -25.5%
82. Nc1c(NCCC2=CCCCC2)c(=O)[nH]c(=O)n1Cc1ccccc1  -26%
83. COc1ccc(/C=C/C(=O)OCCCN(C)C)cc1.Cl  -27.2%
84. Cc1onc(-c2ccccc2Cl)c1C(=O)N(C)CC(=O)Nc1ccc(F)c(F)c1F  -32.7%
85. O=C(COc1ccc(F)cc1)N(Cc1cccs1)C1CCS(=O)(=O)C1 (centres unmarked)  -33.4%
86. Cc1ccc(OCC(O)CNCc2ccccc2)cc1C (centres unmarked)  -33.5%
87. CCCCOc1ccc(C(O)(CCC)CCN2CCOCC2)cc1 (centres unmarked)  -51.2%
88. CC(CN1CCN(C/C=C/c2ccccc2)CC1)c1ccccc1.O=C(O)C(=O)O (centres unmarked)  -59.6%
89. CCOC(=O)c1ccc(Oc2c(C)oc3cc(OS(C)(=O)=O)ccc3c2=O)cc1  -66%
